# Source: PubChem BioAssay AID485281 (National Center for Advancing Translational Sciences (NCATS), 2010)
# The whole screen tested about 350,000 compounds, of which about 260 (0.074%) were called active. Inconclusive means that the source gave no clear call. Such entries were picked first, then a sample of the others. Calls come from the whole dose curve; as a rule, active = well fitted inhibition curve with a large enough effect; inconclusive = small, poorly fitted or top-dose-only effect; inactive = no such curve, though single readings can be large or run the other way. Potencies of inconclusive entries are doubtful fits and often do not repeat.
# Target: Ferritin light chain (Equus caballus) (UniProt P02791)
# Sequence of UniProt P02791 (P02791 whole entry, looked up): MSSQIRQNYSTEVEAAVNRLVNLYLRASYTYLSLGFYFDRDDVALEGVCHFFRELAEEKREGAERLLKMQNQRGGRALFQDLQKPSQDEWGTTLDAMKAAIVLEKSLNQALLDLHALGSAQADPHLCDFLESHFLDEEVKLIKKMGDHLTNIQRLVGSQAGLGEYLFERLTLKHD
# Experiment: qHTS Assay for Identification of Novel General Anesthetics; note: nearly all actives have a fitted effect of over 20% in size
# Conditions: apoferritin/1-aminoanthracene competitive binding, fluorescence; series mostly up to 77.5 µM
# Procedure, shortened: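 Probe: 1-aminoanthracene (50% saturated, PBS). Protein: horse-spleen apoferritin, 10 uM. Incubation: 10 min, room temperature. Detection: 380 nm excitation, 535 nm emission. Analysis: normalized response, four-parameter Hill.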
# Potency is the fitted concentration of half-maximal effect; tags give direction and shape of the fitted curve.
row,Structure (SMILES),Potency
1,Cc1nn(S(=O)(=O)c2cccs2)c(C)c1Sc1ccc([N+](=O)[O-])cc1,"inconclusive: 17.8 µM [inhibitor, partial curve]"
2,O=[N+]([O-])c1cccc(S(=O)(=O)NCCc2cccs2)c1,"inconclusive: 35.5 µM [inhibitor, single point]"
3,Cc1cc(C(F)(F)F)nn1CC(=O)Nc1cccnc1,inactive
4,O=C(Nc1ccc(C(F)(F)F)cc1)c1cc(S(=O)(=O)NC2CCCCC2)ccc1F,"inconclusive: 3.98 µM [inhibitor, full curve, poor fit]"
5,CCc1ccc(/C=C/C(=O)C2C(=O)c3ccccc3C2=O)cc1,"inconclusive: 28.2 µM [inhibitor, partial curve]"
6,O=C(Cc1ccccc1)N1CCN=C1SCc1cccc([N+](=O)[O-])c1,"inconclusive: 31.6 µM [inhibitor, partial curve]"
7,O=C(COc1ccccc1)Nc1ccc(S(=O)(=O)N2CCCCCC2)cc1,"inconclusive: 7.94 µM [inhibitor, single point]"
8,Cc1cc(C)c(C#N)c(SCc2ccccc2C)n1,inactive
9,CC1(C)CC(=O)C2=C(C1)Nc1cc(Cl)ccc1S2,"inconclusive: 12.6 µM [inhibitor, partial curve]"
10,CCCn1c(COc2ccccc2OC)nc2ccccc21,inactive
11,CCOc1ccccc1NC(=O)c1sc2nc(C)cc(C)c2c1N,"inconclusive: 3.98 µM [inhibitor, single point]"
12,O=C(Nc1ccccc1Cl)c1ccccc1Oc1ccc(C(F)(F)F)cc1[N+](=O)[O-],"inconclusive: 10 µM [inhibitor, partial curve]"
13,CCc1ccc(NC(=O)c2ccc(F)c(S(=O)(=O)NC3CCCCCC3)c2)cc1,"inconclusive: 4.47 µM [inhibitor, full curve]"
14,c1ccc2c(Nc3nc4c(s3)CCCC4)cccc2c1,"inconclusive: 22.4 µM [inhibitor, partial curve]"
15,O=c1c2c(-c3ccccc3)csc2ncn1/N=C/c1cccc([N+](=O)[O-])c1O,"inconclusive: 35.5 µM [inhibitor, partial curve]"
16,CC1CN(c2ccc([N+](=O)[O-])c(NCCOc3ccc(Cl)cc3)c2)CC(C)N1 (stereo not given),"inconclusive: 22.4 µM [inhibitor, partial curve]"
17,O=C(Nc1cccnc1)c1ccc(COc2cc(Cl)ccc2Cl)o1,"inconclusive: 56.2 µM [inhibitor, single point]"
18,CC(c1ccccc1)N1C(=O)C2C3C=CC(C4CC34)C2C1=O (stereo not given),"inconclusive: 15.8 µM [inhibitor, partial curve]"
19,O=C(Nc1ccccc1F)c1nc(SCc2ccc(F)cc2)ncc1Cl,"inconclusive: 22.4 µM [inhibitor, partial curve]"
20,O=C(Cc1ccccc1)N/N=C/c1cc(Br)c(Br)o1,"inconclusive: 20 µM [inhibitor, partial curve]"
21,COc1ccc(CN2CCNC(=O)C2CC(=O)NC2CCCCCC2)cc1C (stereo not given),"inconclusive: 14.1 µM [inhibitor, partial curve]"
22,COc1ccc(NC(=O)CCCn2c(=O)c3cccn3c3ccccc32)c(OC)c1,inactive

row,Structure (SMILES),Potency
1,CC(NCc1ccc(-c2ccccc2)cc1)C(O)c1ccccc1 (stereo not given),"inconclusive: 35.5 µM [inhibitor, single point]"
2,CC1Cc2ccccc2N1C(=O)COC(=O)CNC(=O)c1ccc(Br)o1 (stereo not given),"inconclusive: 31.6 µM [inhibitor, single point]"
3,O=S(=O)(NCc1ccccc1)c1ccc(Cl)cc1,"inconclusive: 15.8 µM [inhibitor, partial curve]"
4,Cc1cc(C)cc(OCc2nnc(SCC(=O)N3CCCCC3)o2)c1,"inconclusive: 50.1 µM [inhibitor, single point]"
5,COc1ccc(OC)c(C(=O)NC(CC(N)=O)c2ccc(NC(C)C)c([N+](=O)[O-])c2)c1 (stereo not given),inactive
6,Cc1ccc(Cl)cc1-n1c(=O)c2sc3ccccc3c2n(CC(=O)NC2CCCCC2)c1=O,inactive
7,C=CCn1c(C)cc(C(=O)COC(=O)/C=C/c2ccc(OC)cc2)c1C,"inconclusive: 15.8 µM [inhibitor, partial curve]"
8,CCOC(=O)c1cccc(NC(=O)Cn2c(CC(=O)NC)nc3ccccc32)c1,"inconclusive: 25.1 µM [inhibitor, single point]"
9,Cc1ccc(-n2nc3c(c2NC(=O)c2ccc(S(=O)(=O)N4CCOCC4)cc2)CSC3)c(C)c1,"inconclusive: 12.6 µM [inhibitor, partial curve]"
10,CCC1COCCS(=O)(=O)N1Cc1cccc(C(F)(F)F)c1 (stereo not given),"inconclusive: 28.2 µM [inhibitor, partial curve]"
11,Cc1ccc(C(=O)C(OC(=O)c2c(C)cc(=O)oc2C)c2ccccc2)cc1 (stereo not given),"inconclusive: 15.8 µM [inhibitor, partial curve]"
12,O=C(CNC(=O)c1cccc(F)c1)N/N=C/c1cccs1,"inconclusive: 28.2 µM [inhibitor, single point]"
13,Cn1cnc([N+](=O)[O-])c1Sc1ncccc1N,inactive
14,O=C(NC(=S)NCc1ccccc1)c1cccc([N+](=O)[O-])c1,"inconclusive: 35.5 µM [inhibitor, single point]"
15,COc1ccc(C/C(C)=N/NC(=S)Nc2ccccc2F)cc1,inactive
16,CCc1cc(C(=O)N=Nc2c(O)[nH]c3ccc([N+](=O)[O-])cc23)c2ccccc2n1,"inconclusive: 20 µM [inhibitor, partial curve]"
17,S=C(Nc1ccccc1)N1CCCCCC1,"inconclusive: 14.1 µM [inhibitor, partial curve]"
18,COc1ccccc1/C=C/C(=O)OCC(=O)Nc1c(F)cccc1F,"inconclusive: 44.7 µM [inhibitor, single point]"
19,O=C(CC1CCCCC1)Nc1nc2ccccc2s1,"inconclusive: 7.94 µM [inhibitor, partial curve]"
20,COc1cc2[nH]c(=O)n(CCCC(=O)NCCc3ccccc3)c(=O)c2cc1OC,inactive
21,O=[N+]([O-])c1ccc2nc(-c3ccc(Cl)cc3)n(OCc3ccccc3)c2c1,"inconclusive: 4.47 µM [inhibitor, full curve, poor fit]"
22,CN(C)S(=O)(=O)c1cccc(NC(=O)COC(=O)CCc2nc3ccccc3s2)c1,"inconclusive: 25.1 µM [inhibitor, partial curve]"

row,Structure (SMILES),Potency
1,COc1ccc(-c2cc(C(F)(F)F)nc(SCCC(=O)Nc3ccc(OC)c(OC)c3)n2)cc1,inactive
2,CCC(C)(C)NC(=O)C(c1ccc(F)cc1)N(Cc1ccco1)C(=O)CCC(=O)Nc1ccccn1 (stereo not given),"inconclusive: 56.2 µM [inhibitor, single point]"
3,N#CC1=C(N2CCCCC2)c2cc3c(n2C1=O)CCCC3,"inconclusive: 20 µM [inhibitor, partial curve]"
4,O=C1CCCC2=C1C(c1ccc(O)c(Br)c1)C1=C(CCCC1=O)N2c1ccccc1,inactive
5,Cc1cc(C)c(-c2n[nH]c3c2C(c2ccccc2F)N(Cc2ccco2)C3=O)c(O)c1 (stereo not given),"inconclusive: 11.2 µM [inhibitor, single point]"
6,Cc1csc(NC(=O)c2cccn2C)n1,inactive
7,CC(C)(CO)Nc1ccc([N+](=O)[O-])cc1[N+](=O)[O-],"inconclusive: 28.2 µM [inhibitor, single point]"
8,Cn1nnnc1SCCCNCc1ccccc1OCc1ccc(Cl)cc1,"inconclusive: 39.8 µM [inhibitor, single point]"
9,CC(C)(C)c1ccc(C2CC2C(=O)N/N=C\c2ccc[nH]2)cc1 (stereo not given),"inconclusive: 31.6 µM [inhibitor, partial curve]"
10,CCN1CCN(c2nc3ccccc3nc2C(C#N)S(=O)(=O)c2ccc(C)cc2)CC1 (stereo not given),inactive
11,Cc1cc(C)c(NC(=O)Cn2c(=O)n(CCC(=O)N3CCc4ccccc4C3)c(=O)c3ccccc32)c(C)c1,"inconclusive: 8.91 µM [inhibitor, single point]"
12,Cc1cc(C(c2ccc(C)o2)c2ccc(C)o2)c(O)c([N+](=O)[O-])c1,"inconclusive: 44.7 µM [inhibitor, partial curve]"
13,C=C(C)COc1ccc(-c2[nH]ncc2Oc2cccc(OC)c2)c(O)c1,"inconclusive: 14.1 µM [inhibitor, partial curve]"
14,O=C(NCc1ccco1)c1cc(-c2cccc(Cl)c2)on1,"inconclusive: 10 µM [inhibitor, partial curve]"
15,C=C(C)COc1ccc(-c2[nH]ncc2-c2ccccc2)c(O)c1,"inconclusive: 35.5 µM [inhibitor, partial curve]"
16,CCOc1ccc(OCC)c(-c2c(=O)n(OCc3ccccc3Br)c3ccccc3[n+]2[O-])c1,"inconclusive: 6.31 µM [inhibitor, partial curve]"
17,CO/N=C/c1ccc(N2CCN(C(=O)c3ccc(C)cc3)CC2)c([N+](=O)[O-])c1,"inconclusive: 35.5 µM [inhibitor, partial curve]"
18,COCCC1CCCCN1C(=O)c1cc(COc2ccc(-n3cncn3)cc2)on1 (stereo not given),"inconclusive: 22.4 µM [inhibitor, partial curve]"
19,COC(=O)c1ccc(C(=S)N2CCCCC2)cc1,"inconclusive: 31.6 µM [inhibitor, partial curve]"
20,O=C(CNC1CCCCC1)Nc1ccc(S(=O)(=O)N2CCCCC2)cc1,"inconclusive: 28.2 µM [inhibitor, partial curve]"
21,O=[N+]([O-])c1ccc(Cl)cc1CN1CCCCCC1,"inconclusive: 35.5 µM [inhibitor, partial curve]"
